From paper PMC12040169 (PLOS Biology, 2025)
The list shows a part of the results.

Test system: T1, C. trachomatis L2/434/Bu expressing GFP (CTL2-GFP)
T1 construct: L2/434/Bu GFP intracellular growth in HeLa cells
Set-up: species or system HeLa; C. trachomatis total inclusion area by high-content imaging, normalised to DMSO
Conditions: total inclusion area; 28.5 h, 10 µM; inhibitor
Outline: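 Following bulk GFP and resorufin fluorescence reads, infected cells were fixed, Hoechst-stained and imaged on a high-content platform. Inclusion total area and number per well served as growth proxies; nuclei counts indicated host viability. MICs were derived as for the fluorescence assay.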

| SMILES | % of control remaining |
| --- | --- |
| Cc1ccnn1CCC(=O)N1CCCCC1c1nc2ccccc2[nH]1 (stereo not shown) [CBK282374] | 97.1971 |
| Cc1noc(C)c1C(=O)N(C)Cc1cc(-c2ccncc2)no1 [CBK306677] | 79.3644 |
| Cc1cccc(Cn2nc(C)c(NC(=O)c3ccncc3)c2C)c1 [CBK270126] | 105.581 |
| Cc1nc(NC(=O)Cn2c3c(c4ccccc42)CCC3)nn1C [CBK281377] | 119.537 |
| O=C(O)CNS(=O)(=O)c1ccc(F)cc1 [CBK034464] | 96.9807 |
| Cc1nc(O)cc(C2CCN(C(=O)c3scc4c3CCCC4)CC2)n1 [CBK307452] | 88.2024 |
| CCc1cc2c(NCc3ccccc3)ncnc2s1 [CBK057944] | 83.8572 |
| COc1cccc(CN2CCN(S(=O)(=O)c3ccccc3[N+](=O)[O-])CC2)c1OC [CBK264162] | 127.466 |
| Cc1noc(C)c1NC(=O)c1cc2ccccc2[nH]1 [CBK200303] | 114.01 |
| COc1ccc2[nH]cc(CCNC(=O)c3cncnc3)c2c1 [CBK122720] | 107.348 |
| Cc1ccc(C(=O)O)cc1S(=O)(=O)N1CCC(C(=O)O)CC1 [CBK267327] | 121.697 |
| Cc1nc2sccn2c1CN(CCCN(C)C)Cc1ccco1 [CBK283199] | 49.1498 |
| COc1ccc(C(=O)[C@@H]2CCCN(C(=O)OC(C)(C)C)C2)cc1 [CBK284308] | 73.212 |
| O=C(CN1CC[C@H]2NC(=O)COc3ccccc3CCCC[C@@H]2C1)NCc1ccccn1 [CBK292046] | 122.268 |
| CCN1CC2(CCN(CC(N)=O)CC2)c2ccccc21 [CBK131485] | 108.316 |
| Cc1nn(CCC#N)c(C)c1CCC(=O)NCc1cn2ccccc2n1 [CBK304540] | 47.1387 |
| O=C(N[C@H]1CCN2C(=O)N(c3cccc4nsnc34)C(=O)[C@@H]2C1)c1cccs1 [CBK289543] | 103.953 |
| Cc1cccc2cc(CN(Cc3cccnc3)C(=O)Nc3ccccc3Cl)c(=O)[nH]c12 [CBK108869] | 80.9833 |
| Cc1ccc2c(c1)c(C(=O)N1CCn3nc(CO)cc3C1)nn2C [CBK307134] | 63.6752 |
| Cc1nccn1CC1(O)CCN(CC2=CCC3CC2C3(C)C)CC1 (stereo not shown) [CBK284981] | 90.0457 |
| CC(C)S(=O)(=O)n1ccn(-c2cccc(C(F)(F)F)c2)c1=O [CBK106577] | 86.641 |
| COc1cc(C(=O)N2CCC3(CC2)NC(=O)c2cc(C)ccc2O3)cc(OC)c1C [CBK166273] | 47.4259 |
